Test results taken from the supplement of paper PMC12217912.
The other results are listed elsewhere or left out. Sequences were assembled here from the parent chain. Inactive controls read about 0.05.

B1: TEV protease; numbered along this chain (parent)
chain: MGESLFKGPRDYNPISSSICHLTNESDGHTTSLYGIGFGPFIITNKHLFRRNNGTLVVQSLHGVFKVKDTTTLQQHLVDGRDMIIIRMPKDFPPFPQKLKFREPQREERICLVTTNFQTKSMSSMVSDTSCTFPSGDGIFWKHWIQTKDGQCGSPLVSTRDGFIVGIHSASNFTNTNNYFTSVPKNFMELLTNQEAQQWVSGWRLNADSVLWGGHKVFMVKPEEPFQPVKEATQL

Variants of: B1
Experiment: raw area under fraction-flipped curve 0-4 h after induction (AUC4h, not background-subtracted), DNA-recorder readout of cleavage of the substrate (dimensionless); higher = more cleavage of the substrate by the protease variant
Details: temperature: 34 °C; time window: 0-4 h after rhamnose induction
Experimental: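 In vivo DNA recorder in E. coli TOP10(DE3) ΔrhaA at 34 °C. Each TEVp single-site mutant (parent TEVp 0) is paired with a single-site variant of the 7-mer TEVs (canonical ENLYFQ|S). The substrate sits between flexible linkers in a Bxb1-sfGFP-TEVs-SsrA fusion, so cleavage stabilises Bxb1 and speeds flipping of a recombination array, read by NGS. The value is the raw area under the fraction-flipped curve over 0-4 h after rhamnose induction (AUC4h), with ≥20 reads per time point. It is not background-subtracted; inactive controls average about 0.047.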
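Note: Bxb1 expression induced with 0.2% (w/v) L-rhamnose at OD600 near 0.5, cultures sampled hourly, flipped fraction per protease–substrate barcode pair counted by paired-end Illumina sequencing.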

Row | Variant | area with substrate ENLYFQC | area with substrate ENLYFQF | area with substrate ENLYFQG | area with substrate ENLYFQH | area with substrate ENLYFQL | area with substrate ENLYFQM | area with substrate ENLYFQN | area with substrate ENLYFQR | area with substrate ENLYFQS | area with substrate ENLYFQT | area with substrate ENLYFQW | area with substrate ENLYFQY | area with substrate ENLYFQE | area with substrate ENLYFQI | area with substrate ENLYFQQ | area with substrate ENLYFQV | area with substrate ENLYFQD | area with substrate ENLYFQK | area with substrate ENLYFQP
1 | MGESLFKGPRDYNPISSSICHLTNESDGHTTSLYGIQFGPFIITNKHLFRRNNGTLVVQSLHGVFKVKDTTTLQQHLVDGRDMIIIRMPKDFPPFPQKLKFREPQREERICLVTTNFQTKSMSSMVSDTSCTFPSGDGIFWKHWIQTKDGQCGSPLVSTRDGFIVGIHSASNFTNTNNYFTSVPKNFMELLTNQEAQQWVSGWRLNADSVLWGGHKVFMVKPEEPFQPVKEATQL [G37Q] | 0.0874 | 0.062 | 0.0709 | 0.0632 | 0.0457 | 0.0602 | 0.0586 | 0.0492 | 0.0736 | 0.0506 | 0.0345 | 0.055 | – | – | – | – | – | – | –
2 | MGESLFKGPRDYNPISSSICHLTNESDGHTTSLYGIGRGPFIITNKHLFRRNNGTLVVQSLHGVFKVKDTTTLQQHLVDGRDMIIIRMPKDFPPFPQKLKFREPQREERICLVTTNFQTKSMSSMVSDTSCTFPSGDGIFWKHWIQTKDGQCGSPLVSTRDGFIVGIHSASNFTNTNNYFTSVPKNFMELLTNQEAQQWVSGWRLNADSVLWGGHKVFMVKPEEPFQPVKEATQL [F38R] | 0.0832 | 0.0541 | 0.0554 | 0.0623 | 0.055 | 0.0567 | – | 0.0545 | 0.0739 | 0.0583 | – | – | 0.0549 | 0.056 | 0.0567 | 0.0428 | – | – | –
3 | MGESLFKGPRDYNPISSSICHLTNESDGHTTSLYGIGFGPFIITLKHLFRRNNGTLVVQSLHGVFKVKDTTTLQQHLVDGRDMIIIRMPKDFPPFPQKLKFREPQREERICLVTTNFQTKSMSSMVSDTSCTFPSGDGIFWKHWIQTKDGQCGSPLVSTRDGFIVGIHSASNFTNTNNYFTSVPKNFMELLTNQEAQQWVSGWRLNADSVLWGGHKVFMVKPEEPFQPVKEATQL [N45L] | 0.0595 | – | – | 0.0592 | 0.0672 | 0.0575 | 0.0606 | 0.0686 | 0.0598 | 0.0514 | 0.0528 | 0.0436 | – | 0.0553 | – | 0.0807 | 0.0468 | 0.0613 | 0.0594
4 | MGESLFKGPRDYNPISSSICHLTNESDGHTTSLYGIGFGPFIITNKHTFRRNNGTLVVQSLHGVFKVKDTTTLQQHLVDGRDMIIIRMPKDFPPFPQKLKFREPQREERICLVTTNFQTKSMSSMVSDTSCTFPSGDGIFWKHWIQTKDGQCGSPLVSTRDGFIVGIHSASNFTNTNNYFTSVPKNFMELLTNQEAQQWVSGWRLNADSVLWGGHKVFMVKPEEPFQPVKEATQL [L48T] | 0.0684 | – | 0.0535 | – | – | 0.0653 | – | 0.0599 | 0.0728 | 0.0537 | – | 0.0724 | – | 0.0522 | – | – | 0.0589 | 0.0569 | –
5 | MGESLFKGPRDYNPISSSICHLTNESDGHTTSLYGIGFGPFIITNKHLFRINNGTLVVQSLHGVFKVKDTTTLQQHLVDGRDMIIIRMPKDFPPFPQKLKFREPQREERICLVTTNFQTKSMSSMVSDTSCTFPSGDGIFWKHWIQTKDGQCGSPLVSTRDGFIVGIHSASNFTNTNNYFTSVPKNFMELLTNQEAQQWVSGWRLNADSVLWGGHKVFMVKPEEPFQPVKEATQL [R51I] | 0.0999 | – | – | – | 0.0568 | 0.0826 | 0.0655 | 0.0749 | 0.0856 | 0.0633 | 0.0715 | 0.0773 | – | 0.0578 | 0.0827 | – | 0.0773 | 0.0541 | –
6 | MGESLFKGPRDYNPISSSICHLTNESDGHTTSLYGIGFGPFIITNKHLFRRGNGTLVVQSLHGVFKVKDTTTLQQHLVDGRDMIIIRMPKDFPPFPQKLKFREPQREERICLVTTNFQTKSMSSMVSDTSCTFPSGDGIFWKHWIQTKDGQCGSPLVSTRDGFIVGIHSASNFTNTNNYFTSVPKNFMELLTNQEAQQWVSGWRLNADSVLWGGHKVFMVKPEEPFQPVKEATQL [N52G] | 0.0722 | 0.0535 | 0.079 | – | 0.0558 | 0.0827 | 0.0677 | 0.0541 | 0.0681 | 0.0511 | 0.0261 | 0.0597 | 0.0643 | 0.0607 | – | 0.0569 | 0.0574 | 0.0581 | 0.0565
7 | MGESLFKGPRDYNPISSSICHLTNESDGHTTSLYGIGFGPFIITNKHLFRRNNGTLRVQSLHGVFKVKDTTTLQQHLVDGRDMIIIRMPKDFPPFPQKLKFREPQREERICLVTTNFQTKSMSSMVSDTSCTFPSGDGIFWKHWIQTKDGQCGSPLVSTRDGFIVGIHSASNFTNTNNYFTSVPKNFMELLTNQEAQQWVSGWRLNADSVLWGGHKVFMVKPEEPFQPVKEATQL [V57R] | 0.114 | – | – | 0.0383 | 0.0649 | – | – | 0.064 | 0.111 | 0.0891 | – | – | – | 0.0506 | – | – | – | 0.0594 | –
8 | MGESLFKGPRDYNPISSSICHLTNESDGHTTSLYGIGFGPFIITNKHLFRRNNGTLVVQSLHGVFKVRDTTTLQQHLVDGRDMIIIRMPKDFPPFPQKLKFREPQREERICLVTTNFQTKSMSSMVSDTSCTFPSGDGIFWKHWIQTKDGQCGSPLVSTRDGFIVGIHSASNFTNTNNYFTSVPKNFMELLTNQEAQQWVSGWRLNADSVLWGGHKVFMVKPEEPFQPVKEATQL [K68R] | 0.118 | – | – | 0.0828 | – | – | – | 0.0583 | 0.0969 | 0.069 | 0.0718 | 0.0739 | – | 0.0436 | – | – | – | 0.0707 | 0.0661
9 | MGESLFKGPRDYNPISSSICHLTNESDGHTTSLYGIGFGPFIITNKHLFRRNNGTLVVQSLHGVFKVKDTTELQQHLVDGRDMIIIRMPKDFPPFPQKLKFREPQREERICLVTTNFQTKSMSSMVSDTSCTFPSGDGIFWKHWIQTKDGQCGSPLVSTRDGFIVGIHSASNFTNTNNYFTSVPKNFMELLTNQEAQQWVSGWRLNADSVLWGGHKVFMVKPEEPFQPVKEATQL [T72E] | 0.1 | – | 0.0667 | – | 0.0616 | – | 0.0631 | 0.0827 | 0.0951 | 0.0623 | – | – | – | 0.0509 | – | – | – | 0.0678 | –
10 | MGESLFKGPRDYNPISSSICHLTNESDGHTTSLYGIGFGPFIITNKHLFRRNNGTLVVQSLHGVFKVKDTTTLQQHPVDGRDMIIIRMPKDFPPFPQKLKFREPQREERICLVTTNFQTKSMSSMVSDTSCTFPSGDGIFWKHWIQTKDGQCGSPLVSTRDGFIVGIHSASNFTNTNNYFTSVPKNFMELLTNQEAQQWVSGWRLNADSVLWGGHKVFMVKPEEPFQPVKEATQL [L77P] | 0.108 | 0.0584 | 0.103 | – | 0.0572 | 0.0775 | 0.0875 | – | 0.0933 | 0.0872 | – | 0.0669 | – | 0.0546 | – | – | – | 0.0693 | 0.0557
